# In PubChem BioAssay AID2147 (National Center for Advancing Translational Sciences (NCATS), 2009):
# In all, about 230,000 compounds went through this assay and about 3,600 (1.6%) were called active. This list was built around the results that the source calls inconclusive (neither active nor inactive); the mix of calls is not that of the screen. Calls follow the shape of the dose curve; as a rule, active = well fitted inhibition curve with a large enough effect (not every such curve was filed as active); inconclusive = small, poorly fitted or top-dose-only effect, or another doubt; inactive = no such curve, though single readings can be large or run the other way. Where the call is inconclusive, the potency comes from a doubtful curve fit.
# Molecular target: Lysine-specific demethylase 4E (Homo sapiens) (UniProt B2RXH2)
# Test: qHTS Assay for Inhibitors of Human Jumonji Domain Containing 2E (JMJD2E)
# Settings: JMJD2E catalytic domain, FDH-coupled NADH fluorescence (FDH is formaldehyde dehydrogenase); series mostly up to 57.1 µM; activity change, negative = inhibition: at the top concentration
# Also: nearly all actives have a fitted effect of over 50% in size.
# 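For activity change, negative = inhibition in this document: 0% = wells with enzyme and -100% = buffer wells without enzyme.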
# Potency is read from the fitted curve at half-maximal effect; tags tell the direction and shape of the fitted curve.
# Sequence of UniProt B2RXH2 (B2RXH2 whole entry, looked up, the tested form may be a part): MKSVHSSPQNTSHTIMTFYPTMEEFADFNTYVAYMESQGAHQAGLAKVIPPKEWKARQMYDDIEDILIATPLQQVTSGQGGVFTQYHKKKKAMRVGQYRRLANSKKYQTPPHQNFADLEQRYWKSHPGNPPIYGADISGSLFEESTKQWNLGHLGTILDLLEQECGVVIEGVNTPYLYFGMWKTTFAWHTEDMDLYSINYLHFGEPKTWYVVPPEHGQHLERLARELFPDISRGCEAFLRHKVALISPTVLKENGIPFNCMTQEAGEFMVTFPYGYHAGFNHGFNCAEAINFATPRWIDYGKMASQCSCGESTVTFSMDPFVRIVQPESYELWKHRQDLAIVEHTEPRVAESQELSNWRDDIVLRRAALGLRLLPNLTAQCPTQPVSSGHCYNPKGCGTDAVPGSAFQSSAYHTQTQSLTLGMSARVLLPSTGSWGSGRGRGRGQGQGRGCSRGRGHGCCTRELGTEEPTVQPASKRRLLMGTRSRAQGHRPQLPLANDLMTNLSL
SMILES,"activity change, negative = inhibition",Potency
Clc1ccc(SCCCCn2ccnc2)cc1,inactive: -22%,
CCC1=C2CC[C@H]3C(=O)N(C)C(=O)[C@H]3[C@H]2[C@@]2(Cc3ccccc3)C(=NCCc3c[nH]c4ccccc34)OC(=O)N2C1=O,inactive: 3.46%,
CN(/N=C/c1cccnc1)C1=NS(=O)(=O)c2ccccc21,,"inconclusive: 39.8 µM [inhibitor, single point]"
Cc1csc(NC(=O)c2cc(=O)[nH]c3ccc(S(=O)(=O)N4CCOCC4)cc23)n1,,"inconclusive: 22.4 µM [inhibitor, partial curve]"
COc1cc2c(cc1OC)-c1cc3ccc4c(c3c[n+]1CC2)OCO4,,"inconclusive: 31.6 µM [inhibitor, partial curve]"
Cc1cccc(OCCCOc2cccc3cccnc23)c1C,,"inconclusive: 31.6 µM [inhibitor, single point]"
COc1ccc(C(=O)CN2Cc3ccccc3C2=N)cc1,,"inconclusive: 35.5 µM [inhibitor, single point]"
Cc1cc(Cn2cnc3c2C[C@@H](C(=O)O)N(C(=O)C(c2ccccc2)c2ccccc2)C3)ccc1N(C)C,,"inconclusive: 31.6 µM [inhibitor, partial curve]"
O=C(O)Cc1sc(-c2ccc(C(=O)O)cc2)nc1-c1ccccc1,,"inconclusive: 25.1 µM [inhibitor, partial curve]"
O=C(COc1ccc(F)cc1Br)N1CCN(c2ncccn2)CC1,,"inconclusive: 39.8 µM [inhibitor, single point]"
CCOc1cc(S(=O)(=O)NCC2OCCc3ccccc32)c(OCC)cc1-n1cnnn1 (stereo not given),,"inconclusive: 28.2 µM [inhibitor, partial curve]"
COc1ccc(OC)c(C(=O)COC(=O)c2ccccc2O)c1,,"inconclusive: 39.8 µM [inhibitor, single point]"
O=C(CN1CCCC1)Nc1ccccc1Sc1ccc(Cl)cc1,,"inconclusive: 3.55 µM [inhibitor, partial curve, poor fit]"
OC1(c2ccc(Cl)cc2)CCN(Cc2cn[nH]c2-c2ccccc2)CC1,,"inconclusive: 7.08 µM [inhibitor, single point]"
CCN=C1SC(CC(N)=O)C(=O)N1CC (stereo not given),,"inconclusive: 35.5 µM [inhibitor, partial curve]"
COc1ccc(-c2cc(C(=O)n3cnc4ccccc43)c3ccccc3n2)cc1,,"inconclusive: 28.2 µM [inhibitor, partial curve]"
CC1CN(C2CCN(C(=O)COc3ccc(Cl)cc3)CC2)CC(C)O1 (stereo not given),,"inconclusive: 35.5 µM [inhibitor, single point]"
CCOC(=O)CCNC(C)C1COc2ccccc2O1 (stereo not given),,"inconclusive: 28.2 µM [inhibitor, single point]"
CCN1CCCC1CNC(=O)c1cc2c(-c3cccc(OC)c3)nn(C)c2s1 (stereo not given),,"inconclusive: 20 µM [inhibitor, partial curve]"
CCCCOc1cc(C[C@@H]2CNC(=O)N2)ccc1OC,,"inconclusive: 39.8 µM [inhibitor, single point]"
CCCCc1c(C)nc2ccccc2c1SCCC#N,inactive: -3.16%,
COC(=O)C1=C(C(=O)OC)[C@@H]2N(C)c3ccccc3[C@@]23C[C@@H](C(=O)OC)N(S(=O)(=O)c2ccc(C)cc2)C3=N1,inactive: -4.38% [at 11.4 µM],

SMILES,"activity change, negative = inhibition",Potency
COCCN1C(=O)C(O)=C(C(C)=O)C1c1ccc(F)cc1 (stereo not given),,"inconclusive: 35.5 µM [inhibitor, single point]"
CCN(C(=O)COC(=O)c1ccc(Cl)cc1N)C1CCCCC1,,"inconclusive: 35.5 µM [inhibitor, partial curve]"
COC(=O)c1sc2nc(-c3ccco3)ccc2c1N,,"inconclusive: 31.6 µM [inhibitor, partial curve]"
COc1ccc(/C=N\Nc2ccc([N+](=O)[O-])cc2[N+](=O)[O-])c(C(=O)O)c1OC,,"inconclusive: 39.8 µM [inhibitor, single point]"
O=C(Oc1cccc2cccnc12)c1cccs1,,"inconclusive: 39.8 µM [inhibitor, single point]"
CC(C(=O)N1c2ccccc2CCc2ccccc21)n1nnc(-c2ccc(N(C)C)cc2)n1 (stereo not given),,"inconclusive: 31.6 µM [inhibitor, single point]"
Cc1cccc2nc(CSc3nc4[nH]ncc4c(=O)n3-c3ccccc3Cl)cc(=O)n12,,"inconclusive: 39.8 µM [inhibitor, single point]"
O=C(CCNc1ccc(F)c(Cl)c1)c1ccco1,inactive: -3.98%,
COC(=O)c1ccccc1NC(=O)CNC(=O)c1ccc(OC)c(OC)c1,,"inconclusive: 39.8 µM [inhibitor, single point]"
Nc1nc(-c2sc3nc4c(cc3c2N)CCCC4)nc(N2CCOCC2)n1,,"inconclusive: 3.55 µM [inhibitor, partial curve]"
O=C(Cn1cnc2c(nnn2-c2ccc(F)cc2)c1=O)N1CCCc2ccccc21,inactive: 2.11%,
COC(=O)/C(C)=C/CC12OC(C)(C)C3CC(C=C4C(=O)c5cc6c(c(CCC(C)(C)Cl)c5OC431)OC1(C)CCC(=C(C)C)C6C1)C2=O (stereo not given),,"inconclusive: 28.2 µM [inhibitor, partial curve]"
CCc1ccc(CCC(=O)Nc2nc(CC(C)=O)ns2)o1,inactive: -4.11%,
C=CCc1cccc([C@@H]2[C@@H](C)CC[C@H]3C(=O)N4[C@@H](c5cc(OC)c(OC)c(OC)c5)c5[nH]c6ccccc6c5C[C@H]4C(=O)N23)c1,,"inconclusive: 22.4 µM [inhibitor, partial curve]"
CC(C)OP(=O)(OC(C)C)C(Nc1ccc(C(=O)O)cc1)c1ccccc1 (stereo not given),,"inconclusive: 25.1 µM [inhibitor, single point]"
CCOCCn1c(-c2ccc(OC)cc2)nc2ccccc21,,"inconclusive: 35.5 µM [inhibitor, single point]"
Cc1cc2ccccc2c(=O)n1CC(=O)NCC(=O)N1CCN(c2ccccc2)CC1,,"inconclusive: 35.5 µM [inhibitor, single point]"
N#Cc1c(N)n(CCOC(=O)c2cccc(Br)c2)c2nc3ccccc3nc12,,"inconclusive: 25.1 µM [inhibitor, partial curve]"
O=C(/C=C/c1c(F)cccc1Cl)Nc1nc2ccccc2[nH]1,,"inconclusive: 39.8 µM [inhibitor, single point]"
NS(=O)(=O)c1ccc(NC(=O)COC(=O)C2CC(=O)N(Cc3ccccc3)C2)cc1 (stereo not given),inactive: 7.47%,
COc1ccccc1CNC(=O)c1cnc2ccccn2c1=O,,"inconclusive: 28.2 µM [inhibitor, single point]"
O=c1[nH]c(C(Cl)Cl)nc2sc3c(c12)CCN(Cc1ccccc1)C3,,"inconclusive: 20 µM [inhibitor, partial curve]"

SMILES,"activity change, negative = inhibition",Potency
Cc1ccc2c(c1)c1c(n2CC(O)CNC2CCCC2)CCCC1 (stereo not given),,"inconclusive: 31.6 µM [inhibitor, single point]"
COC(=O)Cn1c(=O)c2c(n(Cc3ccccc3)c1=O)N/C(=C/c1ccc(OC)cc1)C2=O,,"inconclusive: 25.1 µM [inhibitor, single point]"
O=C(Nc1nc2ccccc2n1Cc1ccccc1)c1ccco1,,"inconclusive: 35.5 µM [inhibitor, single point]"
CC1CCN(c2nnc(N)s2)CC1,,"inconclusive: 25.1 µM [inhibitor, single point]"
O=S(=O)(c1cccc(C(F)(F)F)c1)N1CCN(c2cnccn2)CC1,,"inconclusive: 39.8 µM [inhibitor, single point]"
O=C(COC(=O)/C=C/C(=O)OCC(=O)NC12CC3CC(CC(C3)C1)C2)NC12CC3CC(CC(C3)C1)C2,inactive: 1.69%,
CN(C)S(=O)(=O)c1ccc(C(=O)N2CCC(c3nc4ccccc4o3)CC2)cc1,inactive: -6.41%,
COc1cccc(-c2nc(S(=O)(=O)c3ccccc3)c(N3CCOCC3)o2)c1,,"inconclusive: 39.8 µM [inhibitor, single point]"
COc1ccc(-c2nn(-c3ccccc3)cc2/C=N/N=C(N)N)cc1OC,,"inconclusive: 39.8 µM [inhibitor, single point]"
CCCCCCCN[C@H]1CCC[C@@H]1CCCCCCC(=O)O,inactive: 0.735%,
CN1C(=O)c2ccccc2N(C)C1c1ccccc1Cl (stereo not given),,"inconclusive: 6.31 µM [inhibitor, single point]"
CCNC(=S)Nc1cc(-c2ccc(Cl)cc2)[nH]n1,,"inconclusive: 39.8 µM [inhibitor, single point]"
COc1ccc(Cc2nn3c(-c4cc(OC)c(OC)c(OC)c4)nnc3s2)cc1,inactive: -6.84%,
O=C(COc1ccc(/C=N/NC(=O)c2cc3ccccc3o2)cc1Br)Nc1ccccc1,,"inconclusive: 25.1 µM [inhibitor, partial curve]"
O=C(CN1CCN(C(=O)c2c(F)cccc2F)CC1)Nc1ccccc1F,inactive: 0.793%,
CCN(CC)S(=O)(=O)c1ccc(NC2=NS(=O)(=O)c3ccccc32)cc1,,"inconclusive: 39.8 µM [inhibitor, single point]"
Cn1c(=O)c2c(nc(NCc3ccccc3)n2Cc2ccc(F)cc2)n(C)c1=O,inactive: 6.61%,
OCC1(Cc2ccccc2C(F)(F)F)CCN(Cc2ccncc2)CC1,inactive: -22.4%,
COc1cc(C2OCC3C(c4ccc(OC5OC(CO)C(O)C(O)C5O)c(OC)c4)OCC23)ccc1O (stereo not given),,active: 28.2 µM
CC(C)C[C@@H](CC(=O)N[C@H](CC(=O)N[C@@H]1CCCC[C@H]1C(=O)N[C@H](CC(=O)N[C@@H](CCC(=O)O)CC(=O)O)Cc1c[nH]c2ccccc12)C(C)C)NC(=O)[C@@H]1CNCC[C@H]1N,inactive: -10.3%,
COc1cc(/C=N/NC(=S)NCCN2CCOCC2)cc(OC)c1OC,,"inconclusive: 31.6 µM [inhibitor, single point]"
